Measured values reported in paper PMC8144621, “A two-hybrid system reveals previously uncharacterized protein–protein interactions within the Helicobacter pylori NIF iron–sulfur maturation system” (Scientific Reports, 2021).
Results are given in words; binding and its absence hold for the method and conditions named. Some entries that bind do so weakly or less than the wild type. Tags and fused reporters may be left off the sequences shown.

T1: ApbC (HP0207), BACTH fusion (Helicobacter pylori strain 26695) (UniProt O24999)
T1 sequence: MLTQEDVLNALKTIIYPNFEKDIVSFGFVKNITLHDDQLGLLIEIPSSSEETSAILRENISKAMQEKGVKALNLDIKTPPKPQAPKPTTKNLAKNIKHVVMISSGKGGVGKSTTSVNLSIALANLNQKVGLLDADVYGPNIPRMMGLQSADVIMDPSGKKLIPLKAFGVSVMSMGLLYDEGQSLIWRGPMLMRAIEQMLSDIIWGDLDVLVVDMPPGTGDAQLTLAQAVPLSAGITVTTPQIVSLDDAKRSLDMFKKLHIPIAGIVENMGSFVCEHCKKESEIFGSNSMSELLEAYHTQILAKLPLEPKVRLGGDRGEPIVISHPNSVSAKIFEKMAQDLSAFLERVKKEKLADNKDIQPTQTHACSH

T2: FdxA (HP0277), BACTH fusion (Helicobacter pylori strain 26695) (UniProt O25054)
T2 sequence: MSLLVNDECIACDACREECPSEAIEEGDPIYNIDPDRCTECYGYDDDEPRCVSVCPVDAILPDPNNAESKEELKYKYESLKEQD

B1: ApbC (HP0207), BACTH fusion (protein, UniProt O24999 1-368)
chain: MLTQEDVLNALKTIIYPNFEKDIVSFGFVKNITLHDDQLGLLIEIPSSSEETSAILRENISKAMQEKGVKALNLDIKTPPKPQAPKPTTKNLAKNIKHVVMISSGKGGVGKSTTSVNLSIALANLNQKVGLLDADVYGPNIPRMMGLQSADVIMDPSGKKLIPLKAFGVSVMSMGLLYDEGQSLIWRGPMLMRAIEQMLSDIIWGDLDVLVVDMPPGTGDAQLTLAQAVPLSAGITVTTPQIVSLDDAKRSLDMFKKLHIPIAGIVENMGSFVCEHCKKESEIFGSNSMSELLEAYHTQILAKLPLEPKVRLGGDRGEPIVISHPNSVSAKIFEKMAQDLSAFLERVKKEKLADNKDIQPTQTHACSH
B2: Nfu (HP1492), T18 fusion (protein, UniProt O26025 1-89)
chain: MIEFSDEDLQKPVRIVIEKIRPYLLKDGGNIEVLGVKSMKIYVALEGACKTCSSSKITLKNVIERQLKMDIHPNLEVVCLENAKEFDKL
B3: FdxA (HP0277), BACTH fusion (protein, UniProt O25054 1-84)
chain: MSLLVNDECIACDACREECPSEAIEEGDPIYNIDPDRCTECYGYDDDEPRCVSVCPVDAILPDPNNAESKEELKYKYESLKEQD
B4: fumarate reductase subunit FrdB (HP0191), T18 fusion (protein, UniProt O06914 1-245)
chain: MSDNERTIVVRVLKFDPQSAVSKPHFKEYQLKETPSMTLFIALNLIREHQDPDLSFDFVCRAGICGSCAMMVNGRPRLACKTLTSSFESGVITLMPMPSFTLIKDLSVNTGDWFLDMTKRVESWAHSKEEVDITRPEKRVEPDEAQEVFELDRCIECGCCIASCGTKLMRPNFIGAAGMNRAMRFMIDSHDERNDDDFYELVGDDDGVFGCMSLIACHDTCPKELPLQSSIATLRNRMLKVGKSR
B5: Nqo9 (HP1268), T18 fusion (protein, UniProt O25858 1-220)
chain: MAKQEYKQLPKRAEVHSATEQFKDTVKTSLGLDLFKGLGLTIKEFFSPSVTIHYPMEQLPLSPRYRAVHNLQRLLDSGSERCIGCGLCEKICTSNCIRIITHKGEDNRKKIDSYTINLGRCIYCGLCAEVCPELAIVMGNRFENASTQRSQYGSKSEFLTSEQDAKNCSHAEFLGFGAVSPNYNERMQATPLDYVQEPSKEESQEETPTNPESNKGDENV
B6: aconitase (HP0779), T18 fusion (enzyme, UniProt P56418 1-852)
chain: MKDFLEDYKKSVSERGSEGIPPLPLNAKQVQAVVEILTKDPTNAAFAKELLIHRVSPGVDEGAKVKAEFLAKLSQKKLECVHISALEATTLLGTMLGGYNVEPLIMGLESQDKNIAKESAKALKTTLLVYGSFDKIAAMSKTNALAKEVLESWANAEWFLNKEPLNECIEACVFKIDGETNTDDLSPASDAFTRSDIPLHAKAMLKNRIENYEQRIKAIKTKGVPVAYVGDVVGTGSSRKSATNSIMWHFGKDIPFVPNKRSGGIVIGGVIAPIFFATCEDSGALPIVADVKDLKEGDLIKIYPYKGEITLNDKVVSTFKLEPETLLDEVRASGRIPLIIGRGLTNKARKFLGLGESEAFKKPSAPKSDAKGYTLAQKIVGHACGVKGILPGTYCEPKVTTVGSQDTTGAMTRDEVKELASLKFDAPFVLQSFCHTAAYPKPSDVSLHATLPGFITQRGGVALHPGDGVIHTWLNRMGLPDTLGTGGDSHTRFPLGISFPAGSGLVAFAAVTGTMPLNMPESVLVRFKGEMNPGITLRDLVNAIPYYAIKKGLLTVEKKGKINVFNGRILEIEGLPDIKMEQAFELSDASAERSAAACVVRLNKEPMIEYLKSNIKLIDEMIASGYEDKETLKKRRDAMQAWVDNPVLLEPDSNAQYAAVIEIDVAEITEPILACPNDPDDVATLSEVLADTTGKRPHAIDEVFIGSCMTNIGHFRAFGEIVKNAPPSQARLWVVPPSKMDEQELINEGYYAIFGAAGARTEVPGCSLCMGNQARVRDNAVVFSTSTRNFDNRMGRGAKVYLGSAELGAACALLGRIPTKEEYMNLVSEKLESQKDKIYRYMNFNLMENFRL
B7: NifU (HP0221), T18 fusion (protein, UniProt O25009 1-326)
chain: MAKHDLVGSVLWDAYSKEVQRRMDNPTHLGVITEEQAKAKNAKLIVADYGAEACGDAVRLYWLVDESTDRIVDAKFKSFGCGTAIASSDMMVELCLNKRVQDAVKITNLDVERGLRDDPDTPAVPGQKMHCSVMAYDVIKKAAGMYLGKNAEDFEEEIIVCECARVSLGTIKEVIKLNDLKSVEEITNYTKAGAFCKSCVRPGGHEKRDYYLVDILKEVREEMEAEKLKATANKSQSGELAFREMTMVQKIKAVDKVIDENIRPMLMMDGGDLEILDIKESDDYIDVYIRYMGACDGCMSATTGTLFAIENALQELLDRSIRVLPI

Columns and labels:
[1] = molecular target: T1, ApbC (HP0207), BACTH fusion (Helicobacter pylori strain 26695); assay: two-hybrid; BACTH in E. coli BTH101 (cya); T25 fusion with T18 fusion; selection by growth in Fe-enriched M63-maltose liquid minimal medium, 30 °C, 72 h, aerobic; OD595 ≤ 0.05 no detectable interaction, 0.05-0.1 weak, 0.1-0.2 intermediate, ≥ 0.2 strong
[2] = molecular target: T2, FdxA (HP0277), BACTH fusion (Helicobacter pylori strain 26695); assay: as above
[3] = molecular target: T1, ApbC (HP0207), BACTH fusion (Helicobacter pylori strain 26695); assay: two-hybrid; BACTH (bacterial adenylate cyclase two-hybrid) in E. coli BTH101 (cya); T25 fusion (pKT25 or pKNT25) with T18 fusion (pUT18C); screening on MacConkey-maltose (MC-Mal) plates with 0.5 mM IPTG, 0.1 mM FeCl3, 0.5 mM L-cysteine; 30 °C, 36-48 h, aerobic; positive clones turn red
[4] = molecular target: T2, FdxA (HP0277), BACTH fusion (Helicobacter pylori strain 26695); assay: as above
[5] = molecular target: T1, ApbC (HP0207), BACTH fusion (Helicobacter pylori strain 26695); assay: two-hybrid; BACTH in E. coli BTH101 (cya); T25 fusion (pKT25 or pKNT25) with T18 fusion (pUT18C); screening on LB-X-Gal plates with 0.5 mM IPTG, 0.1 mM FeCl3, 0.5 mM L-cysteine; 30 °C, 36-48 h, aerobic; positive clones turn blue
[6] = molecular target: T2, FdxA (HP0277), BACTH fusion (Helicobacter pylori strain 26695); assay: as above

| Binder | binding [1] | binding [2] | binding [3] | binding [4] | binding [5] | binding [6] |
| --- | --- | --- | --- | --- | --- | --- |
| B1 | binds | binds | binds | binds | binds | binds |
| B2 | binds | – | binds | – | binds | – |
| B3 | binds | binds | binds | binds | binds | binds |
| B4 | – | – | binds | – | binds | – |
| B5 | – | – | binds | – | binds | – |
| B6 | – | – | binds | – | binds | – |
| B7 | – | no binding | – | no binding | – | no binding |
